Experimental data as given in publication doi:10.1101/2025.05.14.654016.
These are yes or no findings as the source states them, for the method shown. Binding seen in cells or lysates may run through a third protein. Some entries that bind do so weakly or less than the wild type.

Chains of the proteins cited; added tags and fusions are not shown. Lines headed by an entry give the natural chain unless they say otherwise; changes in a name come on top.
UniProt O75365: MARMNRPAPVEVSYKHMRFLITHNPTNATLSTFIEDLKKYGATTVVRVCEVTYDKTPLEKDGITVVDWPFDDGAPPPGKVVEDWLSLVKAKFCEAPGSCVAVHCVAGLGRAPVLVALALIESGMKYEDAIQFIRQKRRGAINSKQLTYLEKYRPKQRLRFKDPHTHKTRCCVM

Assays:
Test in all cases: co-IP; FLAG-tagged PRL-3 constructs transfected in HEK293T; lysates on anti-FLAG M2 magnetic beads overnight at 4 °C; immunoblot for endogenous CNNM3
[1] = target: FLAG-tagged PRL-3 A111S+R138E (human) (UniProt O75365)
[2] = target: FLAG-tagged PRL-3 C104E (human) (UniProt O75365)
[3] = target: FLAG-tagged PRL-3 A111S (human) (UniProt O75365)
[4] = target: FLAG-tagged PRL-3 C104D (human) (UniProt O75365)
[5] = target: FLAG-tagged PRL-3 wild type (Phosphatase of Regenerating Liver 3) (human) (UniProt O75365)
[6] = target: FLAG-tagged PRL-3 R138E (human) (UniProt O75365)

binding [1]: no binding | binding [2]: no binding | binding [3]: binds | binding [4]: binds | binding [5]: binds | binding [6]: no binding
B1: endogenous CNNM3 (CNNM magnesium transporter) (protein, UniProt Q8NE01 1-707)
chain: MAAAVAAAGRLGWLFAALCLGNAAGEAAPGPRVLGFCLEEDGAAGAGWVRGGAARDTPDATFLLRLFGPGFANSSWSWVAPEGAGCREEAASPAGEWRALLRLRLRAEAVRPHSALLAVRVEPGGGAAEEAAPPWALGLGAAGLLALAALARGLQLSALALAPAEVQVLRESGSEAERAAARRLEPARRWAGCALGALLLLASLAQAALAVLLYRAAGQRAVPAVLGSAGLVFLVGEVVPAAVSGRWTLALAPRALGLSRLAVLLTLPVALPVGQLLELAARPGRLRERVLELARGGGDPYSDLSKGVLRCRTVEDVLTPLEDCFMLDASTVLDFGVLASIMQSGHTRIPVYEEERSNIVDMLYLKDLAFVDPEDCTPLSTITRFYNHPLHFVFNDTKLDAVLEEFKRGKSHLAIVQKVNNEGEGDPFYEVLGLVTLEDVIEEIIRSEILDESEDYRDTVVKRKPASLMAPLKRKEEFSLFKVSDDEYKVTISPQLLLATQRFLSREVDVFSPLRISEKVLLHLLKHPSVNQEVRFDESNRLATHHYLYQRSQPVDYFILILQGRVEVEIGKEGLKFENGAFTYYGVSALTVPSSVHQSPVSSLQPIRHDLQPDPGDGTHSSAYCPDYTVRALSDLQLIKVTRLQYLNALLATRAQNLPQSPENTDLQVIPGSQTRLLGEKTTTAAGSSHSRPGVPVEGSPGRNPGV
